# Data published in article PMC10726135.
# The list shows a part of the results. At the low end of the ranking the order means little. The protein was read in a cell extract, so binding may be indirect.
# Biological target: T1, HNF4alpha2 (COS-7 nuclear extract) (UniProt P41235)
# T1 sequence: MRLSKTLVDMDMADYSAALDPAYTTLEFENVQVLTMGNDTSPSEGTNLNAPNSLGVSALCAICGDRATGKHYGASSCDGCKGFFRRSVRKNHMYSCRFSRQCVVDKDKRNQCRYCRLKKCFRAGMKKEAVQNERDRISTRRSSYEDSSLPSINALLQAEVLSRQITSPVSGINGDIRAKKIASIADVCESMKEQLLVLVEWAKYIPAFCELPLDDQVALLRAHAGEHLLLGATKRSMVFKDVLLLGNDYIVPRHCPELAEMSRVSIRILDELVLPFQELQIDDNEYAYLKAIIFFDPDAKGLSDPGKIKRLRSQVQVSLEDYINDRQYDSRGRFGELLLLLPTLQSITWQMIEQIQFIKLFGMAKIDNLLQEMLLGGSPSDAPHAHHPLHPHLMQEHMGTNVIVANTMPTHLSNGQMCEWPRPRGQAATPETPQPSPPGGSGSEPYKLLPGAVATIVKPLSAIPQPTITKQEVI
# Assay: protein-binding microarray
# Details: COS-7 nuclear extract on double-stranded Agilent 4x180k PBM; binding buffer, salt, pH and temperature not given; high values mean tight binding; double strand, one strand shown; sequences stand for … in …GCCTAGGGAGATTAGAGTATCGGTCGA
row,Sequence,binding signal (log2 normalized intensity)
1,CCTTATCTGGCCGCCTAATCCCCTGGCCTT,1.73
2,TCTAGCTACAGGAGAACAAAGTTCACCTTT,4.56
3,GTAAATTATCTTGATGGTTAAAGTCCAATC,4.89
4,GAGGCTCAGACCTGACCTTTGGATTCCCAG,6.53
5,AGAGTTCATAATTTTGGACTTTGTGCAAAT,5
6,CACCTGTGGGTAATTAACTCCCCCTGCCCC,4.7
7,AGGACCTTGGGAAAGGAGAAGCTGGAGATA,-1.08
8,ACAGCAGCTGACAGATGGTGACCAGACTAC,-1.16
9,TTCAACAGAACTGTTTGAGGGTAAAGATCT,0.338
10,CTTTTTGGGACTGATAACTTAGGCCCATAT,-1.13
11,CTGCTTCTTGGGTCAAAGTCTCTGGTACAA,2.73
12,TAGCTTATCATCTGATCCTTGTACCTGCGA,2.35
13,TCCTATTTCAACATCCTCTCAGGTCAAAGT,4.06
14,TAAAAAATGCAAGTTTATCGAGCTTGATTT,-0.831
15,TTTATTTACTTATGTTGTCCGGACACCAAC,0.562
16,GCACATGAATGATCAAAGGTTGGTTTTTGG,3.45
17,GTGCACTTCTCTTTGAGTCCCAATCCCCCA,4.31
18,TGGAGGAGGGCGAGGCCGAGCCTCAGCCGG,-1.17
19,TCCTCCCATTCCAGCTCTTTACTCAGGTCA,1.5
20,CAGCCCCTTATCAGGAGAGGAGGCCCACAC,1.25
21,GGCTAGCATTCCTGCACACCTGCCTTTGAT,-1.14
22,GATCAGTGTTGAGAATCCCTCCCCTGTGCA,3.7
23,CGGACTTTGTCCTTTGATTTTTTAAAGTAA,4.4
24,GGAAGGCAACCACAGCCTCTGCATTTGCTC,-1.11

row,Sequence,binding signal (log2 normalized intensity)
1,TTCTAGAACCAGGAATCCTAGGGAAGAAAC,-1.17
2,TTAAATAAGTCCTAAGCCTTATTATCTGCT,-1.27
3,CTCTTCCAAGTGTTCTTTACTTCCTTTTGT,1.38
4,ACTATTTGATGAGTCTTAGAGTCCAGACAC,1.67
5,TGAGTGAGTAGGTTCTCAGCTGACATTGGT,0.748
6,TGGGCATCTGCAGGGCAGCAGACTCAGAAA,-1.1
7,AATGTGACCCCTTTCATGAATAAATGACAT,2.21
8,AGTGGTTTAAAAACTTATCTTGTGACCTTT,6.81
9,CATGTTGGCATTCCAGGATGAAGGAAGAGG,-1.12
10,AATGACTAAGGCAGGGAAGGAGAGTGACCT,2.87
11,AGAGAGGGACTAGAACTCAGTGTGAACTCA,0.753
12,TATTCATGTCCCTACCACATACAGAATCCT,0.317
13,AAGAAAGTTCAGCCCTTAGGACCAGGGGGG,-1.21
14,TTGGAAGCCACATTAAGTGACTTAATTATC,-0.801
15,GCCACCATGCTCGGCTGCCTCTCCAAACAA,-1.15
16,GCATATGCCAACAGGTGCTCTTTATCAGCA,0.0224
17,AATGACACTAGCAGAAGAGACAGTCAATTA,-0.744
18,GCCGCTGACAAGCAGCCTCAGTGGCTCACA,-1.31
19,CAGCGGTGCCTCAACCGAGCGTCCAAGCTC,-1.09
20,CGCTAGCTTTCTGGTCTTTGTTCTTTACTT,1.89
21,TCCAGGCTTGTCCTTTTGACCACAGTTATC,2.33
22,ATTATCTACAGAGATAACAGGCCACAACTT,-0.703
23,CCTCGTGGTGCTGATCCCAGCCCCACGGCT,-0.652
24,ATTGTCCAAGGGCTGTAGCAACCAAGTACC,-0.865

row,Sequence,binding signal (log2 normalized intensity)
1,TACAGTGATGTTTGTCAAATGCTTCCAAGA,-1.18
2,CCTCCCTGCCTTAGTCCCAGTATGGTCTCA,1.02
3,GGCTGAACATGACTGGCATTCCCCTATGTC,1.03
4,TGAGATGAAGAGGCCAGGGGCACTCTCTGT,-1.08
5,TCAAGGCTGCCTGGCAGGGTGGGGTGGGGG,-1.13
6,AAAATTAAAGCGGACGGGCTGCGGAGGCGA,-1.24
7,ATTCATCCTCCAAAACCCAGTTCATAGGTC,3.41
8,TGGGGAAACTGTTATCTCTCAACTCAGTGA,-0.543
9,GGACCGCCAAGGAAGCGATGGGCTGGCCCT,-1.07
10,CATACTGAAAAAGGGTTGTGCAAACTTCAG,1.04
11,CCACACAGCACGTAATAGTTCATGAAATGG,0.713
12,GCGCGGCCTCCCCAGAGGCTGGTCAGAATT,0.66
13,CCTTGATGTGTATTTGTAGCTTCAAACCAG,1.24
14,ACACCAACCTGTTCCAAAGTCCACCGTGGT,4.78
15,ATAGGCAGAAGGGACTAGCCTTATCTCAGA,-1.06
16,CCCCCGGCTCTACGCAAGTGGTACCTCCCG,2.58
17,TAACATGTATCAACATGTTTATCCTTCAAC,0.569
18,CTGTTTCTTTGTGTGTCAACAGAGTGCTTA,1.53
19,TTAGATTCCATGCAGCAGCATCCAGCCCCA,3.05
20,TTTAACCAGAGTCTACAGGTCAGACCTGTT,1.37
21,GATAGATTTTGCATTGCTCACATAGCTGGG,-1.13
22,CCTTTCTTTGTCTTTGCAATGTTGTCTTTT,2.33
23,GAGCCCACAGTCCAGTACCATTTCCTGGTC,-0.697
24,GAGAGGTCAATGTCCAGTTCCGCTGCAGTT,4.22
